Reference: the supplement of paper PMC10126150
Sequences with one replicate were seen in a single cluster, so their values are uncertain.

Test system: ATP
Assay: switch fluorescence ratio, 500 uM ATP over buffer (Cy3 cluster intensity, sum of 5 cycles each) (fold (ratio)); higher = stronger signal-on switching upon ATP binding; sequences stand for … in TCGTCGGCAGCGTCAGATGTGTATAAGAGACAGTTTTTTTTTTTTTTTTTTTTTTTTT…TC
Details: aptamer strand: ATP DNA aptamer (quencher-CACCTGGGGGAGTATTGCGGAGGAAGG + anchor), 100 nM annealed; ATP concentration: 500 uM; one replicate
Summary of the method: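 Imaging in selection buffer was followed by imaging after 15 min with 500 uM ATP at 22 °C, for Cy3-labelled switching-strand clusters annealed to 100 nM quencher-labelled ATP aptamer on a modified Illumina MiSeq flow-cell. Five of these buffer/ATP cycles ran, separated by NaOH stripping and re-annealing. The fluorescence ratio per cluster is summed target-cycle over summed buffer-cycle Cy3 intensity, averaged per switch-domain sequence; clusters outside 100-1000 RFU were removed.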
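Also: ATP exposure 15 min at 22 °C before imaging.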

| Sequence | switch fluorescence ratio |
| --- | --- |
| AGATGTGAAG | 1.01 |
| AAATTATGTT | 1 |
| AAAATTACGG | 1.02 |
| ACCACTTGT | 1.06 |
| AACGATAGAT | 1.08 |
| GCCTTGCTTA | 0.97 |
| AAATGACCAG | 0.98 |
| TCGGCATGTC | 1.11 |
| CTGCCCAAAA | 1.04 |
| TAAGAGTTTC | 1.02 |
| GAAGCCAATC | 3.59 |
| GCCGTATCGT | 0.945 |
| GGGCTGAGTC | 0.971 |
| CGTTATATGC | 1.13 |
| AGTGGTCCAC | 0.974 |
| CTATAATTGG | 0.964 |
| GGTCGTGTC | 0.991 |
| CGACTTGTGT | 1.02 |
| TACTGGTTAG | 0.966 |
| CACTTCTCTG | 1.07 |
| ATGTAGATCA | 1.04 |
| CACTCAGCAA | 3.26 |
| AACGAGTCCG | 1.15 |

| Sequence | switch fluorescence ratio |
| --- | --- |
| ATGATATCTG | 1.02 |
| ATGGTACCC | 1.03 |
| CTAAGCAGAC | 2.09 |
| AAAACAGTCT | 1.02 |
| GGTGTTTTGC | 0.993 |
| AAGAATTACC | 1.05 |
| AACACGGCCC | 1.04 |
| TTGGCGGCA | 1.03 |
| AATTTACTAC | 1.05 |
| CAATACCTGA | 1.09 |
| CGAGCACCAG | 1.19 |
| CGTACCTGAG | 1.18 |
| AGGAGT | 0.995 |
| AATTTTCACT | 1.01 |
| GGATAAACGA | 0.977 |
| CGTAAAGGCG | 0.944 |
| CTTGTTAGTT | 1.02 |
| TACGGACACT | 1.3 |
| CGACGTAACA | 1.13 |
| GCGTCAGAGC | 0.99 |
| ATAAAGTTTA | 0.998 |
| ATTGCGGCGG | 1.05 |
| GAAGTATAGT | 0.983 |

| Sequence | switch fluorescence ratio |
| --- | --- |
| TCGTCAGCGC | 1.18 |
| GAGGGCAATA | 4.48 |
| TGATCCCCTT | 1.01 |
| AGTCGTGATT | 1.01 |
| CTCATAACAC | 1.09 |
| GTTAGTTCCT | 1 |
| GGTGTCAAAC | 0.977 |
| CACTCTAAGT | 1 |
| TGTAGCAAGT | 1.04 |
| CAAGCGACAC | 2.39 |
| ACCTTGTAGG | 0.985 |
| CCTTGATAAA | 0.983 |
| AGCTGGTTGG | 0.988 |
| GGGCTATTGA | 1.02 |
| AGCTAGTTGC | 0.994 |
| AAGAGCACCA | 1.01 |
| TCTTAGGAG | 0.95 |
| TAACCTTACT | 1.09 |
| ATGTCTAATG | 1.04 |
| AGATCGATCG | 1.06 |
| TGCTTGGCTG | 0.975 |
| CGCCGCTCAT | 1.1 |
| CCATTCCTG | 1.06 |

| Sequence | switch fluorescence ratio |
| --- | --- |
| GGGGCAAACT | 0.96 |
| CGACTTTTGG | 0.925 |
| CATGTCGCCG | 1.02 |
| GATGAGAGCG | 1.06 |
| GTCAAACGGG | 1.01 |
| CGTGACGTTA | 1.06 |
| TTAGGCACTT | 1.08 |
| ACTTCACTTT | 1.31 |
| TCTTTCGAAA | 2.74 |
| CGTGTGCGTA | 0.971 |
| CATTAATTAG | 1.03 |
| TCAGTGATGG | 1 |
| GCGCATGCGC | 0.974 |
| ATGTGATGT | 0.99 |
| ATATGACGGA | 1.01 |
| TGACAGCCTA | 1 |
| GGGGAGGTAC | 0.943 |
| GCGCAACCG | 1.05 |
| TCCCGTCCT | 1.01 |
| ACTGTTCGC | 1.09 |
| GTCAACGGAG | 1.02 |
| TGGAACTAGG | 1.03 |
| AGATAGGTCC | 1.05 |

| Sequence | switch fluorescence ratio |
| --- | --- |
| CTATTGCAGG | 1.05 |
| TATATGGGG | 0.976 |
| GATTCGAAGC | 0.911 |
| AGACTTCTAC | 1.08 |
| GATTACAGCC | 1.03 |
| GCTGATCTTT | 0.955 |
| TATTTTCTAT | 0.986 |
| CAGGATCACC | 1 |
| CCACTTGGTA | 1.02 |
| AGAGAGATCA | 1.04 |
| ACTCTCTTCT | 1.05 |
| GCTATCCGAC | 1.24 |
| CGACTTGTGA | 1 |
| CGGTGTGGTA | 0.969 |
| TGATCATAAG | 1.03 |
| CCTAAAGGGA | 1.01 |
| ACGCTGCGTT | 1.04 |
| TTCCGCAGGG | 1.5 |
| TTACGGGAGC | 1.02 |
| TGGATGCGTA | 0.984 |
| AACTATATTT | 1.05 |
| CGCGTGTACA | 1.04 |
| TTTTGACCCC | 1.14 |

| Sequence | switch fluorescence ratio |
| --- | --- |
| GCAAGCAGGT | 1.07 |
| GAGGTAAGTA | 0.977 |
| AATTTCGGCA | 1.04 |
| TATTTTCCCG | 1.23 |
| AGGTACGAGT | 0.997 |
| GACATATTCA | 1.04 |
| TGAGCAGACG | 1.03 |
| TGCAGAAACT | 0.983 |
| AACATGTCGG | 0.991 |
| TCGCGGTACT | 3.36 |
| TTCCCTGGTG | 1.61 |
| GGGTGCGTAA | 0.996 |
| TGCTCTGTAT | 1.03 |
| TGCACACGTC | 1.02 |
| ATGAACCTAG | 1.06 |
| CGTCTTCCAA | 1.1 |
| CGGCTCAGCG | 0.972 |
| GGGCATCTTA | 1.03 |
| CATGACCCAG | 0.979 |
| CCCTCCATAA | 2.12 |
| CTAGGAAGGA | 1.02 |
| TATCCCTAGA | 0.985 |
| CCAAGGATTT | 0.981 |

| Sequence | switch fluorescence ratio |
| --- | --- |
| TAATTATCTA | 1.02 |
| CCAGTCTATA | 0.998 |
| TAATTGGCAT | 1.01 |
| CAGCAACCGC | 1.1 |
| AGAAGTCCGG | 1.01 |
| GTTCATTGGC | 1.04 |
| CTAATCTCAT | 0.997 |
| AACCAGGATG | 1.24 |
| ATAGGGGTCT | 1 |
| GGGTTCACTT | 0.998 |
| TGGTACTGTT | 1.04 |
| GGGTTGTAAC | 0.988 |
| TATGTGGAG | 0.996 |
| GAAGAGGACT | 1.01 |
| TATTGTAGAC | 0.928 |
| CTAAGCGTCG | 0.987 |
| GGATAAGGCT | 1.02 |
| GTACCCAGGA | 1.46 |
| AGCTGGGTCG | 1.06 |
